B1: LINE1-mini (parent)
chain: GGCAGAGCUCAACACAGCGUGGCAAAGUGGCUGUGGCUAGACUGCC

The source gives no read counts; variants with many changes may rest on few reads.

In this series the parent is B1. Briefly: self-cleavage, relative activity (ratio to wild type); higher = more cleavage; in vitro, sequencing; the parent is a self-cleaving ribozyme.
For GGUAGAGCUCAACACAGCAUGGGACAGUGGCUGUGGCUAGACUGCC [C3U G19A C23G A25C], the self-cleavage turned out to be 0.67.
On to GGUAGAGCUCAACACACCGUGGCAAAGAGGCUGUGGCUCGACUGCC [C3U G17C U28A A39C], for which the self-cleavage was determined as 0.01.
GGUAGAGCUCAACACAGCGUGUCAAGGUGGCUGUGGCUAGAUUGCC [C3U G22U A26G C42U]: the self-cleavage worked out at 0.52.
Turning to GGUAGAGCUCAACACAUCGUGGCAAAGUGGCUGUGGCUAUACUGCC [C3U G17U G40U], the self-cleavage was 0.18.
The same measure for GGUAGAGCUCAACACAUCGUGGCAAAGUGGCUGUGGCUAAACUGCC [C3U G17U G40A]: 0.02; for GGUAGAGCUCAACACAGCGUGUCAAAGUGGCUGUGGCUAAACUGCC [C3U G22U G40A]: 0.23; for GGUAGAGCUCAACACAGCGUAGCAAAGUCGCUGUGGUUAGACUGUC [C3U G21A G29C C37U C45U]: 0.06.
On to GGUAGACCUCAACACAGCGUGGCAAAGUUGCUGUGGCUAGACUGCC [C3U G7C G29U], for which the self-cleavage was 0.07.
GGUAGAGCUCAACACAUCGUGGCAAAGUGGCGGCGGCUAGACUGCC [C3U G17U U32G U34C]: the self-cleavage stood at 0.01.
For the variant GGUAGAGCUCAACACACCGUGGCAAAGUGGCUGGGGCUAGACUGCC [C3U G17C U34G], the self-cleavage was found to be 0.02.
With GGUAGAUCUCAACACAGCGUGGCAAAGUGGCUUUGGCUAAACCGCC [C3U G7U G33U G40A U43C], the self-cleavage is 0.03.
With GGUAGAUCUCAAUACAGCGUGGCAAAGUGGCUGUGGCUAGACUGCU [C3U G7U C13U C46U], the self-cleavage came out at 0.06.
As for GGUAGAGCUCAACACAGCGUGGCAAAAUGGCUGUGACUCGACUGCC [C3U G27A G36A A39C], the figure is 0.05; as for GGUAGAGCUCAACACAGCAUGGCAAAGUAUCUGUGGCUAGACUGCC [C3U G19A G29A G30U], 0.53.
The same measure for GGUAGACCUCAACAUAGCGUGGCAAAGUGGCUGUGGCUAGACUGCC [C3U G7C C15U]: 0.07.
The same measure for GGUAGAACUCAACACAGCGUGGCAAAGGGGCUGUGUCUAGACUGCC [C3U G7A U28G G36U]: 0.03.
As to GGUAGAGCUCAACACAGCGUGACAAAGUGGCUGUGGCUAGACUGAC [C3U G22A C45A], the self-cleavage came out at 0.12.
For the variant GGUAGAGCUCAACACAACGUGGCAAAGUGGCUGUGGCUGGACUGCC [C3U G17A A39G], the self-cleavage came to 0.06.
The same measure for GGUAGAGCUCAACACAGCUCGGCAAAGUGGCUGUGGCUAGACUGCC [C3U G19U U20C]: 0.35; for GGUAGAGCUCAACACAGCGUGACAAAGUUGCUGUGGCUAGACUGCC [C3U G22A G29U]: 1.14; for GGUAGAUCUCGACACAGCAUAUCAAAGUGGAUGUGGCUAGACUGCC [C3U G7U A11G G19A G21A G22U C31A]: 0.02.
As to GGUAGAGCUCAACACAGCGUUGCAAAGUGGCUGUGGCUAGAGGGCC [C3U G21U C42G U43G], the self-cleavage turned out to be 0.07.
On to GGUAGAGCUCAACACAGCAUGGCAGACUGCCUGUGGCUAGACUGUC [C3U G19A A25G G27C G30C C45U], for which the self-cleavage was found to be 0.18.
GGUAGAGCUCAACACAGCGUCGCAACGUGGCUGUGGCUACACUGCC [C3U G21C A26C G40C]: the self-cleavage came to 0.06.
Take GGUAGAGCUCAACACAGCUUGGCAAAGAGGCUAUGGCUAGACUGAC [C3U G19U U28A G33A C45A]: the self-cleavage amounted to 0.02.
Take GGUAGAGCUCAACACAGCGUAGCAAAGUGGCUGUGGAUAGACUGCC [C3U G21A C37A]: the self-cleavage was determined as 0.51.
For GGUAGAUCUCAACACAGCGUGGCAAAGUGGCCGUGGCUAGACUGCC [C3U G7U U32C], the self-cleavage is 0.1.
Consider GGUAGAGCUCAACACAGCGUUGCCAAGUGGCUGUCACUAGACUGCC [C3U G21U A24C G35C G36A], for which the self-cleavage was 0.01.
The same measure for GGUAGAGCUCAACACAGCCUGGCAAAGUGGCUGUGGCUAGACUGUC [C3U G19C C45U]: 0.05; for GGUAGAGCUCAACACAGCGUGUCAAAGUGGCUUUGGCGAGACUGCC [C3U G22U G33U U38G]: 0.03.
With GGUAGACCUCAACACAGCGUUGCAAAGUGGCUGUGGCUAGACUGCC [C3U G7C G21U], the self-cleavage came out at 0.09.
The same measure for GGUAGAGCUCAACACAGCGUGACAAAGUGGCUGUGGCUAGACUGCU [C3U G22A C46U]: 0.07; for GGUAGACCGAAACACAGCGUGGCAAAGUGGCUGUGGCUAACCUGCC [C3U G7C U9G C10A G40A A41C]: 0.02; for GGUAGAGCUCAACACAGCAUGGCAAAGUGGCUGGGGCUAGACUGCC [C3U G19A U34G]: 0.03.
The same measure for GGUAGAGCUCAACACAGCGUUGCAAAGUGGCUGUGGCUAGACUGCU [C3U G21U C46U]: 0.15; for GGUAGAGCUCAACACAGCGUGUCAAAGUGGCUGUGCCUAGACUGCC [C3U G22U G36C]: 0.03; for GGUAGAGCUCAACACAACGUGGCUAAGUGGCUGUGGCUAGACUGUC [C3U G17A A24U C45U]: 0.06.
Regarding GGUAGAGCUCAACACAGCGUGACAAAGUGGCUUUGGCUAGACUGCC [C3U G22A G33U], the self-cleavage is 0.1.
Regarding GGUAGACUUCAACACAGCGUGGCUAAGUGGCUGUGCCUAAACUGCC [C3U G7C C8U A24U G36C G40A], the self-cleavage turned out to be 0.22.
In the case of GGUAGAUCUGAACACAGCGUGGCAAAGUGGCUGUCGCUAGACUGCC [C3U G7U C10G G35C], the self-cleavage came to 0.01.
The same measure for GGUAGAGCUCAACACAGCAUGGCAAAGUGGCUUUGGCUCGACAGCC [C3U G19A G33U A39C U43A]: 0.03; for GGUAGAGCUCAACACAGCAUGGCAAAGUGGAUGUGGCUAGACUGCC [C3U G19A C31A]: 0.12.
On to GGUAGAUCUCAACACUGCGUGGCAAACCGGCUGUGGCUAGACUGCC [C3U G7U A16U G27C U28C], for which the self-cleavage is 0.08.
The same measure for GGUAGAGCUCAACACAGCGUGGCAAAUUACCUGUGGGUAGACUGCC [C3U G27U G29A G30C C37G]: 0.15; for GGUAGAGCUCAACACAGCGUAACAAAGUGGCUGUGGCUAGUCUGCC [C3U G21A G22A A41U]: 0.69; for GGUAGAGCUCAACACACCAUGGCAAAGUGGCUGUGGCUAGACUGCC [C3U G17C G19A]: 0.22.
With GGUAGAGCUCAACACAGCGUAGCAAAGUGGCUGUGGCUAGAUUGCC [C3U G21A C42U], the self-cleavage was determined as 0.35.
Take GGUAGAGCUCAACACAACGUGGCGAAGUGGCUGUGGCUAGACGGCC [C3U G17A A24G U43G]: the self-cleavage came to 0.01.
For GGUAGACCUCAACACAGCGUGUCAAAGUGGCUGUGGCUAGACUGCC [C3U G7C G22U], the self-cleavage is 0.03.
For GGUAGAGCUCAACACAGCGUAGCAAAGUGGCUGUUGCUAGACUACC [C3U G21A G35U G44A], the self-cleavage worked out at 0.08.
The same measure for GGUAGAGCUCAACACAACGUGGUAAAGUGGCUCUGGCUAGACUGCC [C3U G17A C23U G33C]: 0.02; for GGUAGAGCUCAACACAGCCUGGCAAAGUGGCUGUGGCUAGACUACC [C3U G19C G44A]: 0.28; for GGUAGAGCUCAACACAGCGUGUCAAAGUGGCUGUGGCUAGUCUGCC [C3U G22U A41U]: 0.33.
The same measure for GGUAGAACUCAACACAGCGUGGUAAAGUGGCUGUUGGUAGAGUGCC [C3U G7A C23U G35U C37G C42G]: 0.02.
For the variant GGUAGACGUCAACACAGCGUGGAAAAGUGGCUGUGUCUAGACUGCC [C3U G7C C8G C23A G36U], the self-cleavage is 0.08.
Regarding GGUAGAGCUCAACACAGCAUGGCAAAGUGGCAGUGGCUAGACUGCC [C3U G19A U32A], the self-cleavage came to 0.06.
